{"source": "the supplement of paper PMC12632987", "binders": {"B1": {"name": "traf2_out_13_95_1037 (protein)", "chain": "SKELAKKIMEIADKMLDEVLALLDAAAAAHADDPAAVAVLDEARRAAETRGINEAIHILRQAAAADPEHKADFDALIAEMEAIKREAGREVAKLIKEEKE"}, "B2": {"name": "traf2_out_17_162_1632 (protein)", "chain": "SPLEEKLREYEERLEELEEELKELKKKAEEIEKLSKEELTDLLVEASEKRREALELAEELRELKEKYNDERLDELIERAEEIAEEFQRIANKFYKELEKK"}, "B3": {"name": "traf2_out_3_89_2280 (protein)", "chain": "SMEEEEKIKEARENIETWIRGLRKSTRRVAEEMRKEGASLETIKGLIDSSATALLEAFKISLKDKGFDEETIEELVEEAKEELEKIREELKEEAEKAYEE"}, "B4": {"name": "traf2_out_11_169_844 (protein)", "chain": "EEREKNRAINDFSLELNDKAKEELRKHAKELAKEAGLDVEEIDKIFEENKGKSFSYIAGKLIEYFTSKGKEEVAKKILEKYEELKEEVNKKATAFIKSLE"}, "B5": {"name": "traf2_out_17_178_1656 (protein)", "chain": "DKEEARKKISEATDKLIDLTEETAARLLAILEADGIASPEELAALRRAQRLGSATTVRALMERAVPRSPRSAEVAALLDDFKKKSGELAKEIAEALKKYE"}, "B6": {"name": "traf2_out_13_95_1091 (protein)", "chain": "SKEVAEKINKIADEMLDKSLALLEKLLKIAEEKGKAVEEIKEAIDLAEYRSINEAIHKLEELAKKYPEFKEELEATIKEIRAIKREAGRKVAEILKEEKE"}, "B7": {"name": "traf2_out_12_187_950 (protein)", "chain": "SVEEELRRAAEEAYRQAVRRLKRHAGEDEEVRRFLEELERLRELWEKHPEIAADLLVAASAIIRYMDLLEEGAPAEEIAAARERAERLLREALERAEALE"}, "B8": {"name": "traf2_out_1_158_911 (protein)", "chain": "STEVGLLAASVTSVLDVWAEEAKERGLEEAAALFEELREEVLKLYEENKDSSLEEFAEKVLELIEKYRERAKALDPESRALVDRAFRQIESAVEQVLKLA"}, "B9": {"name": "traf2_out_5_86_2371 (protein)", "chain": "EEARRDAISDELTALLLAEYGKIISKLNELGASADVTYLALKYFNRAVSGERTEEARAKLVEKMKAEGFSDEEIKEILELVEREAAKVREARAAAAAAAA"}, "B10": {"name": "traf2_out_20_3_2065 (protein)", "chain": "EELEKKLEEELEKAIKLLKEAAKKADKETAKKLEELIKRLKKSKELSYDDRLVVLSEIRRELLKLAEEAKAKGDEELAKLLEEAADALNKAMQLTYEIIE"}, "B11": {"name": "traf2_out_15_180_1326 (protein)", "chain": "MTEEELKKRIELANEVADKVDDKLAALLAAHPDLSPAERAALRALARSLTTLLMNGEEEEAAAALEAAEARLSPRAAAVARELAEFIKEVVKKAKEELEK"}, "B12": {"name": "traf2_out_17_162_1528 (protein)", "chain": "SALAARLAALEAELAALEARLAELEARLAEVDALSKEELTDLLVEASEARRRARALAEELEKLRAEIGAERAQALIDRARAIAERLQRIANTLYKALEKK"}, "B13": {"name": "traf2_out_6_156_2449 (protein)", "chain": "TLEEILKETKEKIKKGIEELAKAPEEKKIAEISRIAGAAYRGLQRAREAGASLEELKAFAEELKKVAEEEAEKAGLDEKTKNLLLSSLNAVFDVALAEAA"}, "B14": {"name": "traf2_out_5_63_2356 (protein)", "chain": "SEREELTALARRADELARRLLEAAEAGKEEEVEKLLEEAAEDPELARLVLGILRGEARYYELLGTDPERAAIARELAERLERLMEEKERREREERERRLR"}, "B15": {"name": "traf2_out_6_156_2437 (protein)", "chain": "SVEEIEAATKAELEKLIEELAKASEEKKIFYINRIAGTVYRALQRLREAGASLEELRAFAERIRAFLKEAADKAGLDESTKNLLLSSVNAVFDVALASAA"}, "B16": {"name": "traf2_out_3_89_2288 (protein)", "chain": "SPETEAKIAEMRAIIDRYVAGFAKSARRVAKEMIAEGHSLDTLRGVLTAARNALIEEIRERAREAGLDEETIAELTADAAARLDAIVDAVVAEAAAARAA"}, "B17": {"name": "traf2_out_18_117_1770 (protein)", "chain": "SEREEIIARLEALAAELDRAASELGKAVLEHWDELTPEERSEAMDVLADLSAVRREALLLIHEIRERGLPLEEARARAEALEARAAAALAAAAARLERIK"}, "B18": {"name": "traf2_out_20_3_2252 (protein)", "chain": "EELRKEAEKALEEIEALLAEAAPRLPPEDAAEARELLAKAREYFETDYTDALVYISELRRLALERAQRARAAGDAETAALLERLAEAAGRAAYYLYKIIE"}, "B19": {"name": "traf2_out_20_3_2199 (protein)", "chain": "SELEEELEKALEEALKLLKEAAALADPETAKVLEELAKRLEESRELSYEDRLVVLSEIRRQVLLLAQQARAAGNEELAAVLDEAADALQRAMNLVYKIIE"}, "B20": {"name": "traf2_out_6_169_2485 (protein)", "chain": "SMKEELKKEAERHLERAKELEKIAKTIYKQVIENNDLENLENYILALETLKSAADHHYDKAIAKLKELGEEEKAEEVEKEREKVKKEMEKMIEEVKKLKE"}, "B21": {"name": "traf2_out_17_162_1511 (protein)", "chain": "SEIEELKKKFEEELKELEEELERLEKKMERLKELSKEEISDLLVEASEARRKALELAEEIEKNKEKLGEEEAEKLKDRAEEIAERLQRIANKAYKELLKK"}, "B22": {"name": "traf2_out_11_155_747 (protein)", "chain": "EEKKKLNQEMNNKINDLFDKAREEALKIAEEAAEEHPEHAEEIKEKIEETKGFSYRSFILQMIELFKELGLEEYAKKLEKLLEETQKKANEIVQETEKKL"}, "B23": {"name": "traf2_out_11_155_729 (protein)", "chain": "EKKREAQNKIVDHNLEVGDALLAEVEAIIAEVAAEDPEVAAELRAVVAEHLKYSATSAARAAIDLLRERGYEEQAARLEAALEAAQKEKSEFIKKVEEEL"}, "B24": {"name": "traf2_out_17_178_1715 (protein)", "chain": "TKEAARAEISAATDEMIDLAEAAAARLLAIAEAEGSLSPEELAELRRARRLGSARTTRALMRRAIPRSPSAAEVQALLDDFEKRYAELSKKIAEALKKYE"}, "B25": {"name": "traf2_out_17_162_1633 (protein)", "chain": "SPYEERLRRLEEELERLREKLEELEKKAENIEKLSKEELTDLLVEASEARRRARELAEEIRRLREERDDPRLEELLEEAERLAEKFQRIANKFYKKLLEK"}, "B26": {"name": "traf2_out_18_3_1937 (protein)", "chain": "KEEELKKISEKIDEIIDEAEAKAREALARLKERHPELAAEAERLEALLDAGAGPFGILEAVAELFRRAGDEEAAKEIEEFLREKRKEMQELIDKYEELRK"}, "B27": {"name": "traf2_out_17_60_1760 (protein)", "chain": "GPEERKKELAEEARRKIEEARRLVEEVRKKLEAGTLTADEAMDYLVELSEKRRELRRLAEELRAEGPEFEPLIEELERAIEEVERTMNEVGKELERLLAA"}, "B28": {"name": "traf2_out_15_48_1350 (protein)", "chain": "STEKLRETAREIADLIDETLDEVAEELEKLRPEAAPELKPLIDEAIDIASKKKSINDTIATLEEAQKKASPELAAKLQALIDRLRATRKEASKLFNETEK"}, "B29": {"name": "traf2_out_11_131_657 (protein)", "chain": "MDPVAMARSAAERVDARLEHAKTLSPAERTRVAERALDSLEALAEYMKEHVDEMSKEDIEEAVKILRESAEKILAFDPSVAAEVEEVEKALEELLKAAEA"}}, "note": "The full ranking holds about 1,800 sequences; the median of “median log2 fold change of GCK-ALFA target abundance (FLAG IP / Myc IP barcode read proportion)” is about 0.14, and the lowest 2% start at about -0.84. The list shows a part of the results."}
{"target": "T1, TRAF2, Q12933", "T1 chain": "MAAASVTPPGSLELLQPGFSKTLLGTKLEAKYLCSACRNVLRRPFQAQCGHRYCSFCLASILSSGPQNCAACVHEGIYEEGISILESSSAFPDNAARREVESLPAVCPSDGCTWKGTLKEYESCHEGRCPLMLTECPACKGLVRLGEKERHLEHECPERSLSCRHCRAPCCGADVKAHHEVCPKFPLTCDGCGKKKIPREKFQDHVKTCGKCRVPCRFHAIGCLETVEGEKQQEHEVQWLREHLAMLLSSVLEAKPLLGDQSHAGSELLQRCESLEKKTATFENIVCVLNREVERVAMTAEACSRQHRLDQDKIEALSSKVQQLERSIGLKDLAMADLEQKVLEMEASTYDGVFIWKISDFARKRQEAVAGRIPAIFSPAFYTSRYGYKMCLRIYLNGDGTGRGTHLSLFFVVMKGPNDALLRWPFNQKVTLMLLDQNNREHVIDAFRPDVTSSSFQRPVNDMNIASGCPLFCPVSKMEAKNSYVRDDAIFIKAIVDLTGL", "experiment": "median log2 fold change of GCK-ALFA target abundance (FLAG IP / Myc IP barcode read proportion) (log2 ratio); each designed protein is fused to an ALFA-tag nanobody in HEK293 cells to bring the named protein to FLAG-tagged glucokinase (GCK); Myc marks an untargeted standard; higher = target protein stabilised (more abundant)", "conditions": "target protein: 3xFLAG-MCP-GCK-ALFA reporter; HEK293 landing pad (RPLP)", "procedure,_shortened": "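Binders fused to an ALFA nanobody were recombined as a library into HEK293 landing-pad cells, which were induced with 2 μg mL^−1 doxycycline and then transfected to express a FLAG-tagged target and a Myc-tagged standard. After 48 h, circular RNA barcodes recovered by anti-FLAG and anti-Myc immunoprecipitation of lysates were reverse transcribed, amplified and sequenced. Each binder's target abundance is the median log2 ratio of FLAG to Myc barcode read proportions, from barcodes present at ≥10^−7 in both replicates, binders carrying ≥3 barcodes per replicate, a 10^−6 pseudocount and pooled replicates.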"}
{"binder": "B1", "median log2 fold change": -0.678}
{"binder": "B2", "median log2 fold change": 0.164}
{"binder": "B3", "median log2 fold change": 0.0329}
{"binder": "B4", "median log2 fold change": 0.219}
{"binder": "B5", "median log2 fold change": -0.194}
{"binder": "B6", "median log2 fold change": -0.417}
{"binder": "B7", "median log2 fold change": 0.0974}
{"binder": "B8", "median log2 fold change": 0.126}
{"binder": "B9", "median log2 fold change": -0.451}
{"binder": "B10", "median log2 fold change": 0.378}
{"binder": "B11", "median log2 fold change": 0.218}
{"binder": "B12", "median log2 fold change": 0.314}
{"binder": "B13", "median log2 fold change": 0.117}
{"binder": "B14", "median log2 fold change": 0.448}
{"binder": "B15", "median log2 fold change": 0.157}
{"binder": "B16", "median log2 fold change": -0.32}
{"binder": "B17", "median log2 fold change": 0.0919}
{"binder": "B18", "median log2 fold change": 0.218}
{"binder": "B19", "median log2 fold change": 0.228}
{"binder": "B20", "median log2 fold change": 0.0614}
{"binder": "B21", "median log2 fold change": 0.522}
{"binder": "B22", "median log2 fold change": 0.371}
{"binder": "B23", "median log2 fold change": 0.277}
{"binder": "B24", "median log2 fold change": -0.171}
{"binder": "B25", "median log2 fold change": 0.135}
{"binder": "B26", "median log2 fold change": 0.0939}
{"binder": "B27", "median log2 fold change": 0.112}
{"binder": "B28", "median log2 fold change": 0.561}
{"binder": "B29", "median log2 fold change": 0.208}
